The source of these data is the supplement of paper PMC12645437, “Orthogonal IMiD-Degron Pairs Induce Selective Protein Degradation in Cells” (ACS Chemical Biology, 2025).

The other results are listed elsewhere or left out.
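Note: jurkat cells carrying a lentiviral library of mutant zinc finger degrons fused to EGFP plus mCherry, mCherry+ cells FACS sorted, degron abundance counted by next-generation sequencing.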

The assay addresses no compound (DMSO). Kind of assay: log2 fold change of degron read counts, EGFP-low vs EGFP+ sorted cells; higher = lower degron-EGFP level without compound (poor expression or instability). As to conditions: compound: DMSO control; 18 h.
Turning to FFCNQCGAPFTQKGNLLRHIKL, the “log2 fold change of degron read counts” value stood at 0.89. Take FVCPICGRMFTQKGNLLRHIKL: the “log2 fold change of degron read counts” value is -0.105. On to FHCPVCGAWFTQKGNLLRHIKL, for which the “log2 fold change of degron read counts” value turned out to be 0.282. Then FKCNQCGAMFTQKGNLLRHIKL, with -0.433. For LDCEICGFTCTQKGNLLRHIKL, the “log2 fold change of degron read counts” value was determined as 0.557. Regarding FACDVCGAPFTQKGNLLRHIKL, the “log2 fold change of degron read counts” value is -0.749. Then FFCNVCGAYFTQKGNLLRHIKL, with 0.952. Then FVCNQCGRVFTQKGNLLRHIKL, with 0.15; and FCCPICGRPFTQKGNLLRHIKL, with 0.195; and LHCNQCGFHCTQKGNLLRHIKL, with 1.1. For the sequence FWCPICGHEFTQKGNLLRHIKL, the “log2 fold change of degron read counts” value worked out at 0.632. FFCNQCGAYFTQKGNLLRHIKL: the “log2 fold change of degron read counts” value was 0.647. The result for FTCNQCGRWFTQKGNLLRHIKL reads 0.49. The result for FECDICGAVFTQKGNLLRHIKL reads -2.02. The result for LRCEICGFPCTQKGNLLRHIKL reads 1.54; that for FCCDQCGAYFTQKGNLLRHIKL, -0.198. Consider FQCNQCGAFFTQKGNLLRHIKL, for which the “log2 fold change of degron read counts” value is -1.07. Then FLCPICGALFTQKGNLLRHIKL, with 0.707; and FGCDICGACFTQKGNLLRHIKL, with -0.944; and FWCEICGHYFTQKGNLLRHIKL, with 0.206. Then LACEICGFYCTQKGNLLRHIKL, with 1.09. Take LHCNQCGFACTQKGNLLRHIKL: the “log2 fold change of degron read counts” value turned out to be 1.06. The result for LYCEICGFNCTQKGNLLRHIKL reads 0.818; that for FSCEICGHHFTQKGNLLRHIKL, -0.665; that for FDCPICGHNFTQKGNLLRHIKL, -0.605.

In the case of FICNQCGAAFTQKGNLLRHIKL, the “log2 fold change of degron read counts” value was -1.74. As for FECPQCGAGFTQKGNLLRHIKL, the “log2 fold change of degron read counts” value is -1.82. The result for FFCDVCGACFTQKGNLLRHIKL reads -0.38; that for LDCNQCGFWCTQKGNLLRHIKL, 1.84. The result for FICEICGHPFTQKGNLLRHIKL reads -1.22; that for FKCEICGHMFTQKGNLLRHIKL, -2.31.

FTCDICGAVFTQKGNLLRHIKL: the “log2 fold change of degron read counts” value is -1.16. As for FCCPVCGAKFTQKGNLLRHIKL, the “log2 fold change of degron read counts” value was -0.00342. Then FWCDICGAFFTQKGNLLRHIKL, with 0.64; and FICEQCGAWFTQKGNLLRHIKL, with -0.159; and FSCDVCGAIFTQKGNLLRHIKL, with -0.143. Turning to FWCPICGHPFTQKGNLLRHIKL, the “log2 fold change of degron read counts” value stood at 1.59. Regarding FFCNQCGATFTQKGNLLRHIKL, the “log2 fold change of degron read counts” value is -0.0254. With FYCNVCGAPFTQKGNLLRHIKL, the “log2 fold change of degron read counts” value turned out to be 0.216.

For the sequence FHCPQCGAIFTQKGNLLRHIKL, the “log2 fold change of degron read counts” value is -0.0813. FECPQCGAWFTQKGNLLRHIKL: the “log2 fold change of degron read counts” value is -1.55. The result for LQCNQCGFICTQKGNLLRHIKL reads 0.134. The result for FACDVCGAGFTQKGNLLRHIKL reads -1.62; that for FWCNQCGRCFTQKGNLLRHIKL, 0.98; that for FHCEVCGAQFTQKGNLLRHIKL, -2.28. Then FYCPICGHVFTQKGNLLRHIKL, with -0.118; and FMCNVCGACFTQKGNLLRHIKL, with -0.8; and FACPICGAVFTQKGNLLRHIKL, with 0.126. In the case of LWCNQCGFDCTQKGNLLRHIKL, the “log2 fold change of degron read counts” value amounted to 1.06.

Turning to FFCEVCGAAFTQKGNLLRHIKL, the “log2 fold change of degron read counts” value was -0.912.
